The values below come from PMC4336329 (PLoS ONE, 2015).

The structures appear in SMILES notation. Screen size: about 310,000 compounds; about 2,200 (0.71%) showed an effect of 50% or more. The effect is printed as a negative number. The list shows a part of the results.

The target of this assay is human ether-à-go-go-related gene (hERG) potassium channel (human, UniProt Q12809). Kind of assay: primary screen, population patch clamp on CHO cells stably expressing hERG.
Chain of human ether-à-go-go-related gene (hERG) potassium channel (Q12809 whole entry, looked up): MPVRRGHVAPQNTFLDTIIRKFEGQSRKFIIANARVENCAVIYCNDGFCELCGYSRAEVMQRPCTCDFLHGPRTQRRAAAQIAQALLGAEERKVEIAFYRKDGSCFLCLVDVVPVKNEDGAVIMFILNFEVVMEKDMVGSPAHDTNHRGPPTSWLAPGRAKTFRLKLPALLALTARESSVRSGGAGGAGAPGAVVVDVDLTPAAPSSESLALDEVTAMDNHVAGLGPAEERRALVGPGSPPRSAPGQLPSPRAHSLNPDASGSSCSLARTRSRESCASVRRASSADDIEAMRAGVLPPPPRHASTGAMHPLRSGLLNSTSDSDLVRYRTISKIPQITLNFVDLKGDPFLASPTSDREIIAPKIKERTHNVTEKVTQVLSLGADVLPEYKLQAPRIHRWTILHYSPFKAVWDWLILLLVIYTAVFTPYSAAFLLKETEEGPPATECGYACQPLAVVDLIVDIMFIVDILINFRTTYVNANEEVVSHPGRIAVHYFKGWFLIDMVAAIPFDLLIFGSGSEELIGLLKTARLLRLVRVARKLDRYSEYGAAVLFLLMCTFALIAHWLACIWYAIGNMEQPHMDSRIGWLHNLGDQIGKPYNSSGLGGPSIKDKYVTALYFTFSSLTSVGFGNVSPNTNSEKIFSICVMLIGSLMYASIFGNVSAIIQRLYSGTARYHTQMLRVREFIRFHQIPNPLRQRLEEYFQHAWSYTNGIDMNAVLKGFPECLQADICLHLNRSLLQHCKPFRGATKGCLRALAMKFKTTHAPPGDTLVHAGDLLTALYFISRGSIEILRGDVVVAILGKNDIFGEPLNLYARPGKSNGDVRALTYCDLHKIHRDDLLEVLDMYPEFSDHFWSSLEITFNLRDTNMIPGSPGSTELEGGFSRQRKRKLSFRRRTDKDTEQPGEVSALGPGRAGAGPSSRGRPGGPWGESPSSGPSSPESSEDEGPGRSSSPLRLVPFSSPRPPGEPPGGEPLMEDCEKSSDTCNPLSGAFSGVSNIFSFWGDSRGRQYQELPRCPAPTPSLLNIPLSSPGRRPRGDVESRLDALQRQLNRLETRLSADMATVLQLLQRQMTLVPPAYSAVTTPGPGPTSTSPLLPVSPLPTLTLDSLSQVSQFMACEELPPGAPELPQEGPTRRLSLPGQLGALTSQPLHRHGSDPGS
Regarding `Cc1ccc(-n2c(COc3c(C)cccc3C)nnc2SCC(=O)Nc2nccs2)cc1`, the “hERG current change (%, negative = inhibition) at 1uM” value was -6.54%. The figure for `O=C(O)c1cc(S(=O)(=O)NCC2CCCO2)ccc1Cl` (stereo not shown) is -3.7%; for `Cn1nnnc1SCC(=O)c1ccco1` it is 13.3%; for `Cc1nn(CC(=O)Nc2ccc(Br)cc2F)c(=O)c2cccn12` it is -5.25%. For `Cc1cccc(OCCN2C(=O)C(=O)c3cccc(C)c32)c1`, the “hERG current change (%, negative = inhibition) at 1uM” value is 15.2%. The figure for `CCOC(=O)c1cn(-c2ccccc2CO)c2c(F)c(F)c(F)cc2c1=O` is 12.2%. Take `CCCCCC(=O)NCC(C)NC(=O)CCCCC` (stereo not shown): the “hERG current change (%, negative = inhibition) at 1uM” value amounted to 8.44%. The result for `COc1ccc(NC(=O)Cc2ccc(C)cc2)c([N+](=O)[O-])c1` reads 3.81%. `CC(=O)c1ccc(NC(=O)/C(=C\c2cccs2)NC(=O)c2ccco2)cc1`: the “hERG current change (%, negative = inhibition) at 1uM” value is 16.8%. Consider `COC(=O)C(NNc1ccccc1)(NC(=O)c1ccccc1F)C(F)(F)F` (stereo not shown), for which the “hERG current change (%, negative = inhibition) at 1uM” value is recorded as 6.01%. The result for `Nc1cc(=O)nc(SCC(=O)Nc2ccccc2Cl)n1-c1ccccc1` reads 10.8%; that for `COc1ccc(Cl)cc1N(CC(=O)N/N=C/c1ccc(OCC(N)=O)cc1)S(C)(=O)=O`, 8.49%. `CCCn1c(C2CCCN2c2nc(-c3ccc(C)cc3)cs2)nc2ccccc21` (stereo not shown): the “hERG current change (%, negative = inhibition) at 1uM” value is reported as 8.33%. The result for `Cc1cccc(Nc2nc(N)c([N+](=O)[O-])c(N3CCCC(C)C3)n2)c1` (stereo not shown) reads 10.2%; that for `FC(F)(F)c1ccccc1Nc1nccs1`, 7.41%; that for `Cc1ccc(/C=C/c2nc3ccccc3c(=O)[nH]2)cc1`, 10.4%.

Regarding `FC(F)(F)c1cccc(-n2cc(-c3ccccc3)[nH]c2=S)c1`, the “hERG current change (%, negative = inhibition) at 1uM” value is 12%. The result for `Cc1ccc(NC(=O)OCCNC(=O)c2ccncc2)cc1` reads 11.4%; that for `COc1c[nH]n(-c2ccccc2)c(=O)c1=O`, 11.8%.

As for `Cc1nn(Cc2ccccc2)c(C)c1NC(=O)CSc1nc2sc3c(c2c(=O)n1C)CCC3`, the “hERG current change (%, negative = inhibition) at 1uM” value was 8.38%. With `CCn1c(SCc2cc(=O)[nH]c3ccccc23)nc2c1c(=O)n(C)c(=O)n2C`, the “hERG current change (%, negative = inhibition) at 1uM” value is listed as -4.73%. The result for `C=CCNc1nc(-c2ccccc2)c(C(=O)OCC)cc1C#N` reads 6.21%; that for `COc1ccc(C(=O)NCC(=O)N2CCN(c3ccc(F)cc3)CC2)cc1`, 15.8%; that for `CCOC(=O)C(C)Sc1nc2c(c(=O)[nH]c(=O)n2C)n1CCc1ccccc1` (stereo not shown), -5.6%. Consider `O=C(CN1C(=O)NC2(CCCC2)C1=O)Nc1ccccc1-c1ccccc1`, for which the “hERG current change (%, negative = inhibition) at 1uM” value amounted to 4.55%. Turning to `Cc1c(NC(=O)c2cc(-c3ccc(Br)cc3)on2)c(=O)n(-c2ccccc2)n1C`, the “hERG current change (%, negative = inhibition) at 1uM” value was determined as 13.5%. The result for `COc1cc(OC)c(NC(=O)CCc2ccccc2)cc1Cl` reads 13.4%; that for `O=C(O)CCc1c(C(=O)O)[nH]c2ccccc12`, 7.56%; that for `O=C(NCCc1c[nH]c2ccccc12)c1cccc(S(=O)(=O)Nc2ccccc2Cl)c1`, 19.1%. The figure for `Cc1cc(C)n(C(=O)CSc2ccc(Cl)cc2)n1` is 5.57%; for `CCC(Br)C(=O)Nc1ccc(OC)cc1` (stereo not shown) it is 13.6%.

Consider `O=C(Cc1ccccn1)c1ccccc1`, for which the “hERG current change (%, negative = inhibition) at 1uM” value came to 23.3%. The figure for `COCCCNC(=O)Cn1nc(-c2cccc(OC)c2)ccc1=O` is 15.8%. The figure for `Cc1nn(CCC(=O)NNC(=S)NCC(C)C)c(C)c1Br` is 7.17%; for `O=C(O)CCN1C(=O)/C(=C2\C(=O)N(Cc3ccccc3Cl)c3ccccc32)SC1=S` it is 14.4%. The result for `CCn1c(Cc2ccccc2)nnc1SCC(=O)Nc1nc2ccccc2s1` reads 1.04%; that for `Cn1c(Sc2ccc([N+](=O)[O-])cc2C(F)(F)F)nnc1-c1ccccc1`, -7.61%. In the case of `COc1ccccc1N1CCN(S(=O)(=O)c2ccc3c(c2)NC(=O)C(C)S3)CC1` (stereo not shown), the “hERG current change (%, negative = inhibition) at 1uM” value turned out to be 12.2%.

In the case of `C#CCOCCOCCOCCNc1nc(N2CCOCC2)nc(N2CCN(C(=O)[C@H](CCCCN)n3cc([C@@H](N)CO)nn3)CC2)n1.Cl`, the “hERG current change (%, negative = inhibition) at 1uM” value turned out to be 7.38%. The result for `Cc1onc(-c2ccccc2)c1C(=O)OCC(=O)Nc1ccc(OC(F)(F)F)cc1` reads 8.73%. The result for `Cc1csc(NC(=O)c2ccc(Br)s2)n1` reads 11.1%; that for `Cc1ccccc1-c1nnc(SCC(=O)Nc2ccc3c(c2)OCCO3)n1N`, 4.62%; that for `COCCn1c(SCC(=O)Nc2ccc(Cl)c(S(=O)(=O)N(C)C)c2)nc2ccccc21`, 5.28%.

As for `CC[C@@]12C(=O)N(c3cccc(F)c3)C(=O)N1[C@H](c1ccc(OC)cc1)[C@@H]1C(=O)N(C(C)(C)C)C(=O)[C@@H]12`, the “hERG current change (%, negative = inhibition) at 1uM” value stood at 7.07%. The figure for `Cc1ccc2c(c1)C1CN(C)CCC1N2C(=O)c1ccccc1NS(=O)(=O)c1ccc(F)cc1` (stereo not shown) is 11.8%. For the molecule `CN(Cc1ccccc1)C(=S)NC(=O)C1CCCCC1`, the “hERG current change (%, negative = inhibition) at 1uM” value was 13.5%. As for `O=C(COC(=O)C1CCN(S(=O)(=O)c2cc([N+](=O)[O-])ccc2Cl)CC1)Nc1ncc(Cl)cc1Cl`, the “hERG current change (%, negative = inhibition) at 1uM” value is recorded as -6.05%.

`OCCC1CN(Cc2cn[nH]c2C2CCCCC2)CCN1C1CCCC1` (stereo not shown): the “hERG current change (%, negative = inhibition) at 1uM” value is listed as 6.76%. Consider `COc1ccc(-c2cc(C(F)F)n3ncc(C(=O)Nc4cnn(Cc5ccccc5)c4)c3n2)cc1`, for which the “hERG current change (%, negative = inhibition) at 1uM” value is recorded as 10%. The result for `COc1ccc(C)cc1-n1c(SCC(=O)Nc2cc(C)on2)nc2ccccc2c1=O` reads 12%; that for `O=C(c1cc2nc(C3CC3)cc(C(F)(F)F)n2n1)N1CCCC1`, 6.6%; that for `CCN(CC(=O)Nc1c(F)cccc1F)C(=O)CN1C(=O)c2ccccc2C1=O`, 8.45%.

In the case of `COc1ccccc1C1C=C(c2ccccc2)Nc2nnnn21` (stereo not shown), the “hERG current change (%, negative = inhibition) at 1uM” value is reported as 10.5%. For `O=C(CN(Cc1ccccc1)C(=O)CCC(=O)Nc1ccccn1)NCc1ccc(F)cc1`, the “hERG current change (%, negative = inhibition) at 1uM” value is listed as 14.9%. Take `CC(C)[C@H](NC(=O)OCc1ccccc1)C(=O)OCC(=O)N1CCN(c2ccc(F)cc2)CC1`: the “hERG current change (%, negative = inhibition) at 1uM” value is -10.1%. For the molecule `COc1ccc(-c2ncc(CN3CCN(CCC(C)C)C(CCO)C3)cn2)cc1` (stereo not shown), the “hERG current change (%, negative = inhibition) at 1uM” value is -10.2%. The figure for `COc1ccc(CCOC(=O)c2ccc(N)c([N+](=O)[O-])c2)cc1` is 20.6%; for `C[C@H](CO)NC(=O)[C@H](C)[C@H]1C[C@]1(C)[C@H](NC(=O)OCc1ccccc1)c1ccccc1` it is 4.64%. The figure for `C#CCOCCOCCOCCNc1nc(N2CCN(C(=O)CCCCCCCCCCNC(=O)[C@H]([C@@H](C)CC)n3cc(CCCCN=C(N)N)nn3)CC2)nc(N2CCN(C(=O)CCCCCCCCCCNC(=O)[C@H](CO)n3cc(CCCSC)nn3)CC2)n1` is 15.9%. The figure for `O=C(Nc1ccc(CSc2ccccc2)cc1)c1ccccc1` is 14.2%; for `COC(=O)C1=C(C)NC(=O)NC1C1CC=CCC1` (stereo not shown) it is 10.7%; for `CCCN1CCC(=O)N([C@H](CSc2ccc(C)cc2)c2ccccc2)CC1` it is -76.3%. In the case of `COc1ccc(-n2cnc3cc(NCc4ccccn4)ccc32)cc1`, the “hERG current change (%, negative = inhibition) at 1uM” value is -4.42%. For the molecule `C=C1C[C@@H]2[C@H](CC[C@]3(C)C(=O)CC[C@@H]23)[C@@]2(C)C=CC(=O)C=C12`, the “hERG current change (%, negative = inhibition) at 1uM” value turned out to be 6.42%. The figure for `Cc1cc(C(C)(C)C)ccc1OCCN1CCCC1` is -18.7%; for `C(=N/n1c2ccccc2c2ccccc21)/c1ccco1` it is 18.4%; for `Cl.O=c1[nH]c(CN2CCCCC2)nc2ccccc12` it is 11.6%.

As for `CN(C)c1nc2n(c(=O)n1)CCS2`, the “hERG current change (%, negative = inhibition) at 1uM” value was 24.5%. The figure for `CCc1noc(C)c1C(=O)N1CCN(S(=O)(=O)c2ccc(C)cc2C)CC1` is -9.18%. The figure for `COc1ccc(NC(=O)CN2C(=O)CSC2=O)cc1` is 5.54%.

As for `Cc1ccc(-c2nc3ccccn3c2Nc2ccccc2)o1`, the “hERG current change (%, negative = inhibition) at 1uM” value is on record as 5.67%. The result for `O=C(N/N=C/c1cccnc1)c1cc2c(ccc3ccccc32)o1` reads 14.6%; that for `COc1ccc(Cl)cc1N=Cc1c(O)n(C)c(=O)n(C)c1=O`, 8.58%. The result for `N#Cc1c(C(F)(F)F)cc(-c2cccs2)nc1SC(C(=O)O)c1ccccc1` (stereo not shown) reads 12%; that for `CCSc1nc2c(c(=O)[nH]1)C(c1cccnc1)C(C(=O)OC(C)C)=C(C)N2` (stereo not shown), 2.8%; that for `O=C(Nc1ccc(S(=O)(=O)N2CCCC2)cc1)C1CCCN1C(=O)c1cccs1` (stereo not shown), 7.18%. The figure for `Cc1ccc(NC(=S)NNC(=O)c2cccc([N+](=O)[O-])c2)cc1Cl` is 9.98%. With `COC(=O)CCCC1=CC2=CC(=O)C(C)(OC(=O)c3cccs3)C(=O)C2=CN1CCCOC(C)C` (stereo not shown), the “hERG current change (%, negative = inhibition) at 1uM” value is reported as -0.424%. As to `COCc1cc(C)nc(OC)c1C(N)=O`, the “hERG current change (%, negative = inhibition) at 1uM” value turned out to be 18.5%.

On to `O=C(COC(=O)CC1CC2CCC1C2)Nc1ccc(Cl)c(S(=O)(=O)N2CCOCC2)c1` (stereo not shown), for which the “hERG current change (%, negative = inhibition) at 1uM” value stood at 8.43%.

Turning to `CCCn1c(C)cc(C(=O)COC(=O)CN=C2NS(=O)(=O)c3ccccc32)c1C`, the “hERG current change (%, negative = inhibition) at 1uM” value is reported as 11.7%. The figure for `CCc1ccc(N=Nc2ccc(O)c3[nH]cnc23)cc1.[Cl-]` is 11.9%. Turning to `CCN1C(=NCc2ccco2)N[C@@H](c2cccc(F)c2)C(C(=O)OC)=C1C`, the “hERG current change (%, negative = inhibition) at 1uM” value was -1.29%. Regarding `CCN(CC)c1ccc(C=Nc2cccnc2Cl)c(O)c1`, the “hERG current change (%, negative = inhibition) at 1uM” value is 16.3%. Turning to `Cc1nnc(SCC(=O)N2N=C(c3ccc(Cl)cc3)CC2c2ccco2)[nH]c1=O` (stereo not shown), the “hERG current change (%, negative = inhibition) at 1uM” value is listed as 9.72%.
